From article PMC7819943, “Rice protein-binding microarrays: a tool to detect cis-acting elements near promoter regions in rice”
The other results are listed elsewhere or left out.

biological target: T1, OsWOX13 (Oryza sativa, UniProt Q5QMM3 1-267); test: protein-binding microarray (RPBM); PBS, 2% BSA, 51.3 ng/ul salmon testes DNA, 50 uM zinc acetate, 200 nM TF, 25 C, 1 h; high values mean tight binding; settings: protein: recombinant; tags: N-terminal polyhistidine and DsRed monomer fusion (pET32a); label: CyDye5-dUTP incorporated in the synthesized complementary strand; 3' TTTTT single-stranded linker to array surface; dsDNA, one strand shown
T1 sequence: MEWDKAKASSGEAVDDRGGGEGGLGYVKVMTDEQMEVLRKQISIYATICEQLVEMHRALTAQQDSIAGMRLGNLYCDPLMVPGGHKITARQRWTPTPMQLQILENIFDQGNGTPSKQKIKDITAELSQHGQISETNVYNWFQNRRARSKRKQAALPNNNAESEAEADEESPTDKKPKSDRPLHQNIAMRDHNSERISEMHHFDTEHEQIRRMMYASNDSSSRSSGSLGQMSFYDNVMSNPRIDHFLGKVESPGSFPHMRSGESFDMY
Summary of the method: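 An Axon 4000B scanner gave the binding signal as per-feature fluorescence intensity in arbitrary units. This followed washing of a custom Agilent array that had been incubated for 1 h at 25 °C with 200 nM protein in PBS, 2% BSA, salmon testes DNA and 50 µM zinc acetate. The proteins were transcription factors fused at the N-terminus to polyhistidine and DsRed, expressed in E. coli BL21-CodonPlus and purified on Ni–NTA.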

Row | Sequence | binding signal
1 | GTGTCGCCAGTGATTGCAGTTTCAGTTCGAAATTTCTCTACGGAGTCACCTAGTGCAG | 9490 fluorescence intensity (a.u.)
2 | AAAATAATTCAGAAGATAGATTGATATGTGATAAATCACTCGGAGTCACCTAGTGCAG | 24500 fluorescence intensity (a.u.)
3 | TGTGACCGGTTTTGATTAGTTAAGGGACGCCGGGTATCTGCGGAGTCACCTAGTGCAG | 13500 fluorescence intensity (a.u.)
4 | ACTCCATTGCCTATAAATCACACGTACTAACTGGCGGGGTCGGAGTCACCTAGTGCAG | 5380 fluorescence intensity (a.u.)
5 | ATGACAGATAAGCTAACTATTGTTCCTTCACCTGTCAAAACGGAGTCACCTAGTGCAG | 13100 fluorescence intensity (a.u.)
6 | TTAATTGCCGAGGAAACTCGTCTACAGTCACTTCCCAACGCGGAGTCACCTAGTGCAG | 4080 fluorescence intensity (a.u.)
7 | ATTGACACACTTAAATTTTACATCACACTCAATAAAAGTGCGGAGTCACCTAGTGCAG | 9780 fluorescence intensity (a.u.)
8 | TCCCTGGTTACTTGATTAGTCTGTGTGACGTGTAGCGGTTCGGAGTCACCTAGTGCAG | 8660 fluorescence intensity (a.u.)
9 | GTATTTGGATAATTGGCAAACCTAAAAGTGGCAAATAGTTCGGAGTCACCTAGTGCAG | 9670 fluorescence intensity (a.u.)
10 | AAGTAATTGGATGTTTTAAGGGACAAGGTTTGTCTTCTTACGGAGTCACCTAGTGCAG | 28500 fluorescence intensity (a.u.)
11 | AAACATTGATTGTGTTCCCCTGTTAATATGGATTTTATGGCGGAGTCACCTAGTGCAG | 21700 fluorescence intensity (a.u.)
12 | TCCTATAATTTATAGATTATTATGGCCAGTCTAAACGGTTCGGAGTCACCTAGTGCAG | 14100 fluorescence intensity (a.u.)
13 | CCACTTTTAAAATGTGGTAATTAAGGATTTGTAACAGTGGCGGAGTCACCTAGTGCAG | 5010 fluorescence intensity (a.u.)
14 | GTTTGAATTTTCTAATTGCTTCTACTGTTTGCCTCAGCTCCGGAGTCACCTAGTGCAG | 6270 fluorescence intensity (a.u.)
15 | AAGTGCTAATTATTAATGGTGATTGAATTTATCCGAGCATCGGAGTCACCTAGTGCAG | 16100 fluorescence intensity (a.u.)
16 | GCCCAAATTGACCAGGCCCTGTTACGTCTCGTGCTCCCCTCGGAGTCACCTAGTGCAG | 32900 fluorescence intensity (a.u.)
17 | TTCCATTTAATTGCCTTGAGCAAACTAATGATACTTCTCGCGGAGTCACCTAGTGCAG | 24500 fluorescence intensity (a.u.)
18 | TAAATTGATATGAGTTATTAAGTAAGACATTGTAAAATGCCGGAGTCACCTAGTGCAG | 19500 fluorescence intensity (a.u.)
19 | GTAATTAATTACTTGATTAACAATTAAATAATAATAGTTACGGAGTCACCTAGTGCAG | 33200 fluorescence intensity (a.u.)
20 | AGCCTAATTACGTCATGATTTGACAATGTAATGATACCGTCGGAGTCACCTAGTGCAG | 53500 fluorescence intensity (a.u.)
21 | CGCTGATTAGTGCAAAATATTACAAGTCCTATATAGCTAACGGAGTCACCTAGTGCAG | 33900 fluorescence intensity (a.u.)

Row | Sequence | binding signal
22 | GTTGCCAATCAACAAAAGATTTCTTGAGCGTTGGCAGAACCGGAGTCACCTAGTGCAG | 19000 fluorescence intensity (a.u.)
23 | GTGTGGAAATTGGAAATCGATCAGCAAGCTGCTGGAGCTACGGAGTCACCTAGTGCAG | 3180 fluorescence intensity (a.u.)
24 | ATCTTATGATTAGTGAAGAGTGTTGAAATTAAAACACATGCGGAGTCACCTAGTGCAG | 14900 fluorescence intensity (a.u.)
25 | AATAATTGCTCCTCGTCGCCGGAGCAGAAGGTCTCGAGGACGGAGTCACCTAGTGCAG | 9360 fluorescence intensity (a.u.)
26 | GCTTGCTTATTCAATCAGCTCAATTCCTAACAACAAGTTTCGGAGTCACCTAGTGCAG | 4940 fluorescence intensity (a.u.)
27 | GTACAAATCAATTTTCTGTATACAGCTATAGAGGCGTGCACGGAGTCACCTAGTGCAG | 8520 fluorescence intensity (a.u.)
28 | CACCGTGCTGTGTTAATGGGCTAATTTGTAGCGAGCGCCTCGGAGTCACCTAGTGCAG | 3670 fluorescence intensity (a.u.)
29 | CTAACTAATCTATCAGCAGAGGCAGCAAGCTCGTGCATGGCGGAGTCACCTAGTGCAG | 4460 fluorescence intensity (a.u.)
30 | TAAGCAATTATTGTATGAATGGGCTATTGCATTGGCTATACGGAGTCACCTAGTGCAG | 5610 fluorescence intensity (a.u.)
31 | TTTGAATTTTCAATCTTAAATTTAGAGTTGATTTTGAAGTCGGAGTCACCTAGTGCAG | 24700 fluorescence intensity (a.u.)
32 | TGGCAATTAATTAATCACGCGGTCTTAATATATACTCCCGCGGAGTCACCTAGTGCAG | 38400 fluorescence intensity (a.u.)
33 | AAGCCTAATTAATCTATCATTAGCAAATGTTTACTATATCCGGAGTCACCTAGTGCAG | 32000 fluorescence intensity (a.u.)
34 | CAGAATTGAGAGTTCACATATCCTCAGTGGTCAGAGTTCACGGAGTCACCTAGTGCAG | 6100 fluorescence intensity (a.u.)
35 | TCAAACTTAACAGCGTTTGATCCATTCACATCCGGCCCATCGGAGTCACCTAGTGCAG | 3710 fluorescence intensity (a.u.)
36 | CAAATTGATACCGGCCGAGTTGTGAATGGAAGAGAATCTGCGGAGTCACCTAGTGCAG | 13500 fluorescence intensity (a.u.)
37 | GGGATGATTTTGTAACTCGATGACAAGTTGAGGGACCTTTCGGAGTCACCTAGTGCAG | 15100 fluorescence intensity (a.u.)
38 | ATTCTTTCCTCAATCAAACCAACCCTTCTCTTCTCCACAGCGGAGTCACCTAGTGCAG | 3220 fluorescence intensity (a.u.)
39 | TTAATGATGACAGGAAAATCAACTATATATTGGGTTATCCCGGAGTCACCTAGTGCAG | 23800 fluorescence intensity (a.u.)
40 | AGGAAATGTGTGATTGGTTGATAAGTAAAAGTAGGTAAAGCGGAGTCACCTAGTGCAG | 37800 fluorescence intensity (a.u.)
41 | GGACTGGTGATGGACAATCTCAAGATTTCCATATAAATGGCGGAGTCACCTAGTGCAG | 9840 fluorescence intensity (a.u.)
42 | ACCATGATGGGCTCTAACTCTAAAGCCCATCAGACTCAAGCGGAGTCACCTAGTGCAG | 4260 fluorescence intensity (a.u.)
